Laboratory results from the RNAGym collection of RNA variant scans (doi:10.7554/elife.90254).
Read counts are not given, so values of variants with three or more changes are uncertain.

B1: LINE1-mini (parent)
chain: GGCAGAGCUCAACACAGCGUGGCAAAGUGGCUGUGGCUAGACUGCC

Variants of: B1
Assay: self-cleavage, relative activity (ratio to wild type); higher = more cleavage; in vitro, sequencing; the parent is a self-cleaving ribozyme

Row | Variant | self-cleavage
1 | G17A C23U A24U A39C | 0
2 | G17A C31A U32G A41C C46G | 0.01
3 | G17A C31U U43A | 0.02
4 | G17A C37A A41C C46A | 0.02
5 | G17A C37A C42A | 0.01
6 | G17A G19A C23U U28C G44U | 0.02
7 | G17A G19A G33A | 0.07
8 | G17A G19A G36C C37A | 0.04
9 | G17A G19A U20G C46U | 0.02
10 | G17A G19C G44U | 0.09
11 | G17A G19U A26C G27C C45U | 0.06
12 | G17A G19U C23A A41G G44U | 0.01
13 | G17A G19U G35U A41C | 0
14 | G17A G21C C31U | 0.41
15 | G17A G21U G22C A24C | 0.33
16 | G17A G22A G35A | 0.03
17 | G17A G22C A24C G27U G40A C46U | 0.03
18 | G17A G22C C42U | 0.17
19 | G17A G22U G27U | 0.56
20 | G17A G27C G44U | 0.02
21 | G17A G27U C42A | 0.08

Row | Variant | self-cleavage
22 | G17A G27U G29U | 0.6
23 | G17A G29U G36U | 0.03
24 | G17A G30A G40U A41U | 0.11
25 | G17A G30A U34G | 0.01
26 | G17A G30C G36U | 0.04
27 | G17A G30U G44A | 0.06
28 | G17A G33A C37U C46U | 0.01
29 | G17A G35A G44U | 0.02
30 | G17A G35C C37G U38A | 0.07
31 | G17A G35U A41C C45U | 0.02
32 | G17A G35U G36U G40C | 0.07
33 | G17A G36A A39C | 0.05
34 | G17A G36C C45G | 0.02
35 | G17A G36C G44A | 0.03
36 | G17A G36U A41U | 0.07
37 | G17A U20A C23U G35U G44C | 0.04
38 | G17A U20G G36C | 0.02
39 | G17A U28A G40U U43C | 0.09
40 | G17A U28G G29A | 0.06
41 | G17A U32C A39C | 0.01
42 | G17A U32C G33U | 0.02

Row | Variant | self-cleavage
43 | G17A U32C G36U A39G C45A | 0.03
44 | G17A U34A U38G | 0
45 | G17A U34C A39C C42G | 0
46 | G17A U38A A39C C42A G44C | 0.01
47 | G17A U38A C42A | 0.05
48 | G17A U38A G40A | 0.15
49 | G17A U38C C46A | 0.04
50 | G17A U38C G44A | 0.03
51 | G17C A24C C31A | 0.03
52 | G17C A24U G35C | 0.11
53 | G17C A24U G36A | 0.06
54 | G17C A24U U28A U34C | 0.06
55 | G17C A24U U34A G44C | 0.02
56 | G17C A25G G29A A39G | 0.04
57 | G17C A25U C45U | 0.17
58 | G17C A26G C31A U32G | 0.03
59 | G17C A26U G29U | 0.13
60 | G17C C18A C45A | 0.01
61 | G17C C18A G19U | 0.09
62 | G17C C18A G22U A41C | 0.02
63 | G17C C18A G36C | 0.06

Row | Variant | self-cleavage
64 | G17C C18G U32C G36A | 0.04
65 | G17C C18U A26C G33C | 0.02
66 | G17C C18U G29U | 0.76
67 | G17C C18U G40U C46G | 0.01
68 | G17C C23A C31U G36C G44U | 0
69 | G17C C23A G35C | 0.07
70 | G17C C31A U38C | 0.41
71 | G17C C31U A41U | 0.03
72 | G17C C37G C46A | 0.03
73 | G17C C37U C46U | 0.38
74 | G17C G19A U20A G21U | 0.62
75 | G17C G19C C23U C31A C42A | 0.06
76 | G17C G19C G33U | 0.08
77 | G17C G19U A39G | 0.11
78 | G17C G21A C37G | 0.06
79 | G17C G21A C46A | 1.68
80 | G17C G21A G22A G33A G40C U43A | 0.02
81 | G17C G21A G44C | 0.03
82 | G17C G21C C42G G44U | 0.02
83 | G17C G21C G30A | 0.21
84 | G17C G21U C45A | 0.23
